Data reported in the RNAGym collection of RNA variant scans (doi:10.1073/pnas.2313332121).
Variants at the floor of the assay are shown more often than the library holds them.

B1: TPR 5TU (parent)
chain: GGAUCUUCUCGAUCUAACAAAAAAGACAAAUCUGCCACAAAGCUUGAGAGCAUCUUCGGAUGCAGAGGCGGCAGCCUUCGGUGGCGCGAUAGCGCCAACGUUCUCAACUAUGACACGCAAAACGCGUGCUCCGUUGAAUGGAGUUUAUCAUG

Variants of: B1
Assay: polymerase ribozyme fitness, log enrichment relative to wild type (log ratio); higher = more active; in vitro selection for triplet polymerase activity
How it was run: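 To select mutant libraries of each subunit of a heterodimeric triplet polymerase ribozyme, built by PCR and transcribed, each was annealed with a biotinylated primer, partner subunit and triplets, then incubated frozen at −7 °C. Extended constructs were gel-excised, captured on streptavidin beads and amplified by RT-PCR, in one round carried out in triplicate. Illumina sequencing of input and output libraries kept genotypes with ≥10 input reads and ≥1 read per output. Fitness is the base-2 logarithm of genotype enrichment relative to wild-type enrichment, from inverse-variance-weighted replicate averages.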

Variant	polymerase ribozyme fitness (log ratio)
A110C A121U	-4.04
A110G C149G	-3.83
A110U C114G A115C U134A G136C	≤ -4.2
U111A G124A U135C	-3.76
U111A G143C	≤ -4.2
G112A C116U G141U	≤ -4.2
G112A U148C	-4.13
A113C G126A C129A C131U A137C	≤ -4.2
A113U G117U	-2.07
C114A C132U G133C	-3.96
C114A U134G G143C	≤ -4.2
C114G A142C	≤ -4.2
C114U A122G	-1.87
C114U A137C	-3.52
C114U G124U	-3.13
C114U U139C	-3.63
A115C C132U G141C	≤ -4.2
A115C U139A A142U	≤ -4.2
A115G U146A	-1.38
A115U C118A	-1.83
A115U G136A	-1.18
C116A C118G A137U	≤ -4.2
C116A C131A	≤ -4.2
C116G C125G	≤ -4.2

Variant	polymerase ribozyme fitness (log ratio)
C116U U139C	≤ -4.2
C116U U145C U148C	-2.77
C116U U151C	-4.04
C116U U151G	≤ -4.2
G117U G143A	-0.982
G117U U135C	-2.36
C118A A138C	≤ -4.2
C118U A119U	-0.842
A119G C125A	0.204
A119U A121G U135C U146A A150G	-3.77
A119U G140U	-3.25
A119U U134A	-2.99
A120U U135C	-2.85
A121C	0.117
A121G	-0.0563
A121G G143A A147U	-1.46
A121U	-0.0614
A122C G141C A147C	≤ -4.2
A122G A138C	≤ -4.2
A122G G143A	-1.03
C123A C132G	-3.17
C123A G128A A150G	≤ -4.2
C123A G141C	0.333
G124U G140A	-4

Variant	polymerase ribozyme fitness (log ratio)
G124U U134G	-2.98
C125A	-0.171
C125A U148A	-3.93
C125G	-0.473
C125G A142C	-4.01
C125U	-0.476
C125U G143U	-3.2
C125U U134A	-1.89
C125U U145C	-0.634
C125U U146G	-1.15
G126A G133C U146C	-2.5
G126A U127G C149G	≤ -4.2
G126U G133U G143A U145G	≤ -4.2
G126U U135C	-1.61
U127C U139C U151G	≤ -4.2
U127G G140A	-4.15
C129A U148A	≤ -4.2
C129U U148G	≤ -4.2
U130G U135G	≤ -4.2
C131A A138C U139G	-3.67
C131A A150G	≤ -4.2
C131G U146G	≤ -4.2
C132U U145G	-0.815
G133C U144C C149U	-3.98

Variant	polymerase ribozyme fitness (log ratio)
G133C U151C	≤ -4.2
G133U A138U U144G	≤ -4.2
G133U U148G	-4.1
U134A	-2.25
U134A A138C	≤ -4.2
U134A A142G U144G	-2.83
U134C	0.0692
U134G	-2.37
U134G A137G A150C	≤ -4.2
U134G U151G	≤ -4.2
U135C G136A U151G	≤ -4.2
U135C U145C	-2.51
U135G A137U U139A U151G	≤ -4.2
G136A A137U G141U A142G	≤ -4.2
G136C U146C	-2.93
A137U G141U A147U	≤ -4.2
A137U U144A	≤ -4.2
A138C A142G	-3.66
A138C U144G	-3.7
A138G U146G	≤ -4.2
U139A G143A	≤ -4.2
G140A G141A	-3.15
G140U U144C	-3.28
G141A A147C	-3.63

Variant	polymerase ribozyme fitness (log ratio)
G141A G143U	≤ -4.2
G141U U146A	0.37
A142U C149A	≤ -4.2
G143A	-0.315
G143A U145A	-2.03
G143C	-1.78
G143C U146A	-3.65
G143U	-1.84
U144A	-0.043
U144A U145A	-0.541
U144C	0.0778
U146A U151A	≤ -4.2
U146C A150U	0.851
A147C	0.176
A147G	-0.913
A147U	1.1
C149U A150G	-2.95
G152A	-1.77
G152C	-2.58
G152U	-2.19
